About 5,800 (2.1%) of roughly 270,000 compounds were called active. The inconclusive results got no clear call from the source; some entries with a clear call stand among them for comparison. Calls follow the shape of the dose curve; as a rule, active = well fitted inhibition curve with a large enough effect; inconclusive = small, poorly fitted or top-dose-only effect; inactive = flat fitted curve, though single readings scatter. Potencies of inconclusive entries are doubtful fits and often do not repeat.
biological target: Microtubule-associated protein tau (Homo sapiens) (UniProt P10636); test: qHTS for Inhibitors of Tau Fibril Formation, Thioflavin T Binding; details: recombinant tau K18 P301L (four-repeat tau fragment), heparin-induced fibrillization, ThT fluorescence; series mostly up to 57.4 µM; activity, negative = inhibition: at the top concentration; also: nearly all actives have a fitted effect of over 55% in size
Sequence of UniProt P10636 (P10636 whole entry, looked up, the tested form may be a part): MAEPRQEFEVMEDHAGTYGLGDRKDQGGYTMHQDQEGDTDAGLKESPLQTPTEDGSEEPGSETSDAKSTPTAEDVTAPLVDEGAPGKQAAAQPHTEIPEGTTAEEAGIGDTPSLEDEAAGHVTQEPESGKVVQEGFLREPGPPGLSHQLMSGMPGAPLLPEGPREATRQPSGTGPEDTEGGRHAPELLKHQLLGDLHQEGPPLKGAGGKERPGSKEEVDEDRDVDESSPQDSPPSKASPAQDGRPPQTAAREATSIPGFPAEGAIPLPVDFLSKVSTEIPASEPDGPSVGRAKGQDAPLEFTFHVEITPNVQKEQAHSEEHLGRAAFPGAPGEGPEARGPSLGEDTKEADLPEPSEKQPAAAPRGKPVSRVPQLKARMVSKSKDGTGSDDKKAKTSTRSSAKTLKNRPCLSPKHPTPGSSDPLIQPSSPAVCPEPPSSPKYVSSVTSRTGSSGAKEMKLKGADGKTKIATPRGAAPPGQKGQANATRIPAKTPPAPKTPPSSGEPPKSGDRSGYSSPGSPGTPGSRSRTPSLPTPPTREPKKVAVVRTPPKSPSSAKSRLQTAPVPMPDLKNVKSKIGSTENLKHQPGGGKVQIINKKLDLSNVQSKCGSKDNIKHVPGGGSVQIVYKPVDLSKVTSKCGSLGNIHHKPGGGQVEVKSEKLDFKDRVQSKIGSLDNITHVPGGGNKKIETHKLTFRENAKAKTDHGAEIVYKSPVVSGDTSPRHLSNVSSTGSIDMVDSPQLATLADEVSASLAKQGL
In short: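 Heparin-induced fibrillization of the P301L-mutant K18 repeat-domain fragment of human tau was followed by ThT binding in quantitative high-throughput format.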
% is scaled to controls: 0 for no effect and ±100 for the full control effect; potency is read from the fitted curve at half-maximal effect; tags tell the direction and shape of the fitted curve.

Question: With `Cc1cc(NC(=O)N2CC=C(c3c[nH]c4ccccc34)CC2)ccc1Br` as the compound, how does the Potency read?
Answer: active: 7.94 µM

Question: How did the “activity, negative = inhibition” value turn out when `Cn1c(=O)c([N+](=O)[O-])c(NCc2ccccc2Cl)c2ccccc21` was run?
Answer: inactive: -17.1%

Question: For `O=C(Nc1ccc(N2CCOCC2)cc1)c1ccc(S(=O)(=O)NCc2ccco2)cc1`, which Potency is on record?
Answer: inconclusive: 0.0708 µM [inhibitor, full curve, poor fit]

Question: With `COc1ccc(C(=O)NNC(=O)Cn2nnc(-c3ccc(OC)c(OC)c3)n2)cc1` as the compound, how does the Potency read?
Answer: inconclusive: 17.8 µM [inhibitor, single point]

Question: Which “activity, negative = inhibition” value does the source give for `CCN1CCN(C(=O)c2ccc(N3CC4CC(C3)c3cccc(=O)n3C4)c([N+](=O)[O-])c2)CC1` (configuration not stated) here?
Answer: inactive: -12.9%

Question: For `COc1ccc(N2CCN(c3nc4ccccc4n3CC(=O)c3ccccc3)CC2)cc1`, which Potency is on record?
Answer: inconclusive: 17.8 µM [inhibitor, single point]

Question: How did the Potency turn out when `Cc1ccc(C(=O)n2nc(-c3ccco3)nc2N)cc1` was run?
Answer: inconclusive: 20 µM [inhibitor, partial curve]

Question: Which Potency does the source give for `Nc1ncnc2c1ncn2C1CCCO1` (configuration not stated) here?
Answer: inactive

Question: How did the “activity, negative = inhibition” value turn out when `Cn1c(=O)c2c(nc(SCC(=O)Nc3ccc(OC(F)(F)F)cc3)n2Cc2cccc(C(F)(F)F)c2)n(C)c1=O` was run?
Answer: inactive: -13.5%

Question: `O=C(CC1Sc2ccccc2NC1=O)Nc1cccc(-c2nnc3n2CCCCC3)c1` (configuration not stated) was tested. Which Potency did it give?
Answer: inconclusive: 20 µM [inhibitor, single point]

Question: Which Potency does the source give for `Cc1ccc2c(c1)c(C)c(C)n2CC(O)CN1CCOCC1` (configuration not stated) here?
Answer: inconclusive: 25.1 µM [inhibitor, single point]

Question: `Cc1ccc(C(=O)CSc2nnc(-c3ccc4[nH]c(C)c(C)c4c3)o2)cc1C` was tested. Which Potency did it give?
Answer: inconclusive: 3.55 µM [inhibitor, full curve]

Question: Which “activity, negative = inhibition” value does the source give for `COc1ccc(CN2CCN(C(=O)C3CCC(CNS(=O)(=O)c4ccc(C)cc4)CC3)CC2)c(OC)c1OC` (configuration not stated) here?
Answer: inactive: -9.47%

Question: How did the Potency turn out when `CCOC(=O)C1CCN(c2nc3ccccc3nc2C(C#N)C(=O)OCCOC)CC1` (configuration not stated) was run?
Answer: inconclusive: 31.6 µM [inhibitor, partial curve]

Question: With `COC(=O)c1ccc(-c2ccc(/C=N/NC(=O)CC3(C)OCCCO3)o2)cc1` as the compound, how does the Potency read?
Answer: inconclusive: 11.2 µM [inhibitor, partial curve]

Question: How did the Potency turn out when `O=[N+]([O-])c1cc(-c2cnc3ccccc3n2)ccc1Cl` was run?
Answer: inconclusive: 0.398 µM [inhibitor, full curve]

Question: `COc1cccc(/C=N/n2c(-c3n[nH]c4c3CCC4)n[nH]c2=S)c1O` was tested. Which Potency did it give?
Answer: inconclusive: 14.1 µM [inhibitor, partial curve]

Question: With `CCC(=O)Nc1cccc2c1C(=O)N(C)C2=O` as the compound, how does the “activity, negative = inhibition” value read?
Answer: inactive: 7.87%

Question: For `O=C(NC(=S)N1CCN(c2nc(-c3ccccc3)cs2)CC1)c1cccnc1`, which Potency is on record?
Answer: inconclusive: 25.1 µM [inhibitor, single point]

Question: How did the Potency turn out when `CCN(CC)S(=O)(=O)c1ccc(Cl)c(C(=O)Oc2cccnc2)c1` was run?
Answer: inconclusive: 17.8 µM [inhibitor, single point]

Question: Which Potency does the source give for `COc1cccc(-c2nc(SCC(=O)Nc3ccc4c(c3)OCO4)c(-c3ccccc3)[nH]2)c1` here?
Answer: inconclusive: 15.8 µM [inhibitor, partial curve]

Question: For `CCOC(=O)CSc1nnc(NC(=O)c2cccc([N+](=O)[O-])c2)s1`, which Potency is on record?
Answer: inconclusive: 11.2 µM [inhibitor, partial curve]

Question: For `O=C(Cc1ccc(Br)cc1)N1CCN(c2ccccn2)CC1`, which “activity, negative = inhibition” value is on record?
Answer: inactive: 3.26%

Question: Which Potency does the source give for `CCOC(=O)C1CCN(c2ncnc3c2c(-c2ccccc2)cn3-c2ccc(C)cc2)CC1` here?
Answer: inconclusive: 5.62 µM [inhibitor, full curve]

Question: `CCOC(=O)c1ccc(NC(=O)CSc2nccn2C)cc1` was tested. Which Potency did it give?
Answer: inconclusive: 14.1 µM [inhibitor, partial curve]

Question: With `CCc1ccc(N=c2c([N+](=O)[O-])nn(-c3ccc4c(c3)OCCO4)n2O)cc1` as the compound, how does the Potency read?
Answer: active: 11.2 µM

Question: `COC(=O)N/N=C/c1cc(N=Nc2ccccc2)ccc1O` was tested. Which Potency did it give?
Answer: active: 1.12 µM

Question: With `Cc1cc(/C=C2/C(=N)N3C(=NC2=O)SN=C3S(C)(=O)=O)c(C)n1-c1ccc(F)cc1` as the compound, how does the “activity, negative = inhibition” value read?
Answer: inactive: -22%

Question: `C(=C\c1ccccc1)/C=N/Nc1nc2ccccc2[nH]1` was tested. Which Potency did it give?
Answer: active: 7.94 µM

Question: `CC(=O)c1ccc(NC(=O)Nc2ccc(Cl)cc2)cc1` was tested. Which Potency did it give?
Answer: inconclusive: 22.4 µM [activator, partial curve]

Question: Which “activity, negative = inhibition” value does the source give for `COC(=O)Cc1ccc(NC(=S)NCCO)cc1` here?
Answer: inactive: 6.44%

Question: Which “activity, negative = inhibition” value does the source give for `CC1=NN(C(=O)Cn2nc([N+](=O)[O-])c(Br)c2C)C(O)(C(F)(F)F)C1` (configuration not stated) here?
Answer: inactive: -1.03%

Question: With `O=C(O)CC1(CC(=O)NCc2ccc(-c3cccs3)cc2)CCCCC1` as the compound, how does the Potency read?
Answer: inconclusive: 7.94 µM [inhibitor, partial curve]

Question: Which Potency does the source give for `CCOc1cc(-c2nc3ccccn3c2NCC2CCCO2)ccc1O` (configuration not stated) here?
Answer: inconclusive: 39.8 µM [inhibitor, single point]

Question: For `COc1ccccc1Oc1nc2c(c(=O)n(C)c(=O)n2C)n1Cc1cccc(Br)c1`, which Potency is on record?
Answer: inconclusive: 39.8 µM [inhibitor, single point]

Question: `COc1ccccc1C(=O)NCC(=O)N/N=C/c1ccc([N+](=O)[O-])cc1` was tested. Which Potency did it give?
Answer: inconclusive: 10 µM [inhibitor, partial curve]

Question: Which Potency does the source give for `CCc1nc2sc3ccccc3c(=O)c2c(=O)n1Cc1ccco1` here?
Answer: inconclusive: 31.6 µM [inhibitor, partial curve]

Question: `COc1ccc2nc(NC(=O)CSc3nc(SC)ns3)sc2c1` was tested. Which Potency did it give?
Answer: inconclusive: 0.447 µM [inhibitor, full curve]

Question: With `COc1cc(/C=C/C(=O)c2ccc(NS(=O)(=O)c3ccc(C)cc3)cc2)cc(OC)c1O` as the compound, how does the Potency read?
Answer: active: 11.2 µM

Question: With `CCOc1ccc(/C=C/C(O)=C2/C(=O)NC3(C)CC2c2ccccc2O3)cc1OC` (configuration not stated) as the compound, how does the Potency read?
Answer: inconclusive: 5.01 µM [inhibitor, full curve, poor fit]

Question: How did the Potency turn out when `COc1ccccc1C(=O)NCCCNc1ccc([N+](=O)[O-])cc1` was run?
Answer: inconclusive: 8.91 µM [inhibitor, partial curve]

Question: With `CC(=O)Nc1nonc1NC(=O)COc1ccccc1` as the compound, how does the “activity, negative = inhibition” value read?
Answer: inactive: 4.46%

Question: With `CC(=O)NCc1ccc(C(=O)CCl)s1` as the compound, how does the Potency read?
Answer: inconclusive: 35.5 µM [inhibitor, single point]

Question: `Cc1c(Cl)cccc1NC(=O)C(C)n1nc(C)c2c(C)n(-c3ccccc3)nc2c1=O` (configuration not stated) was tested. Which “activity, negative = inhibition” value did it give?
Answer: inactive: -6.28%

Question: For `Cc1cccc(OCC(=O)Nc2ccc(OCc3cc(=O)n4cc(C)ccc4n3)cc2)c1`, which Potency is on record?
Answer: inconclusive: 1 µM [inhibitor, full curve]

Question: For `CC(=O)Nc1ccc(Nc2nc3ccc(Cl)cc3n3cnnc23)cc1`, which “activity, negative = inhibition” value is on record?
Answer: inactive: -8.66%

Question: How did the “activity, negative = inhibition” value turn out when `CCn1c(SCC(=O)NCCOC)nc2sc(C)c(C)c2c1=O` was run?
Answer: inactive: -2.13%

Question: For `CN1CCc2c(sc3c2c(=O)n(-c2ccc(Cl)cc2)c2nncn32)C1`, which Potency is on record?
Answer: inconclusive: 14.1 µM [inhibitor, partial curve, poor fit]

Question: `O=c1[nH]c2ccccc2n2c(-c3ccccc3)nnc12` was tested. Which Potency did it give?
Answer: active: 10 µM

Question: `Cn1cnnc1SCC(=O)Nc1ccc2nc(SCc3cccc4ccccc34)sc2c1` was tested. Which Potency did it give?
Answer: inconclusive: 0.447 µM [inhibitor, full curve, poor fit]

Question: How did the “activity, negative = inhibition” value turn out when `CCC1CCCCN1C(=O)CSc1n[nH]c(-c2ccccc2)n1` (configuration not stated) was run?
Answer: inactive: -0.278%

Question: How did the Potency turn out when `O=C(CC1(O)C(=O)N(CCc2ccccc2)c2ccc(Br)cc21)c1ccccc1` (configuration not stated) was run?
Answer: inconclusive: 2.51 µM [inhibitor, full curve, poor fit]

Question: With `C=CCC(NCc1ccccc1)c1ccc(Cl)cc1` (configuration not stated) as the compound, how does the “activity, negative = inhibition” value read?
Answer: inactive: 2.15%

Question: Which “activity, negative = inhibition” value does the source give for `CC1CC(C)(C)NC(=S)N1CCC(=O)N1CCc2ccccc21` (configuration not stated) here?
Answer: inactive: -8.57%

Question: `C/C=C/C1=Cc2ccccc2C(CC(=O)OC)N1C(=O)OC` (configuration not stated) was tested. Which activity, negative = inhibition did it give?
Answer: inactive: 3.33% [at 11.5 µM]

Question: Which Potency does the source give for `O=C(COC(=O)c1ccccc1C(=O)c1ccc(Cl)c([N+](=O)[O-])c1)NC1CC1` here?
Answer: inconclusive: 17.8 µM [inhibitor, partial curve]

Question: How did the Potency turn out when `COc1cccc(/C=N/Nc2nc3ccccc3[nH]2)c1O` was run?
Answer: inconclusive: 5.62 µM [inhibitor, partial curve]

Question: For `COc1ccc(-c2cc(C(F)(F)F)n3nc(C(=O)OC(C)C)cc3n2)cc1`, which “activity, negative = inhibition” value is on record?
Answer: inactive: -3.5%

Question: For `Cc1cc2c(n1-c1ccc(C(=O)NCCc3ccc(Cl)cc3)cc1)CCC(C)C2` (configuration not stated), which Potency is on record?
Answer: inconclusive: 31.6 µM [inhibitor, single point]

Question: How did the Potency turn out when `Cc1cc(OCc2nc(-c3ccc(NC(=O)c4cccnc4)cc3)no2)ccc1Cl` was run?
Answer: inconclusive: 0.282 µM [inhibitor, partial curve]

Question: For `CCCCn1c(N)c(Br)c(=O)[nH]c1=O`, which Potency is on record?
Answer: inconclusive: 31.6 µM [inhibitor, single point]

Question: `C=CCN1C=C2C(=O)C(C)(OC(=O)CC)C(=O)C=C2C=C1CCCC` (configuration not stated) was tested. Which Potency did it give?
Answer: inactive

Question: With `CC(Nc1oc(-c2ccco2)nc1C#N)c1ccccc1` (configuration not stated) as the compound, how does the “activity, negative = inhibition” value read?
Answer: inactive: 0.647%

Question: For `COc1ccccc1-c1cc2ccccc2[nH]1`, which Potency is on record?
Answer: inconclusive: 14.1 µM [inhibitor, partial curve]

Question: `COc1ccccc1N1CCN(C(=O)c2cc3c(s2)-c2ccccc2OC3)CC1` was tested. Which Potency did it give?
Answer: inconclusive: 6.31 µM [inhibitor, partial curve]

Question: How did the Potency turn out when `O=C(CCc1c[nH]c2ccccc12)N1CCN(c2ccc(O)cc2)CC1` was run?
Answer: inconclusive: 31.6 µM [inhibitor, single point]

Question: `CCOC(=O)C(=O)Cc1nc2ccccc2s1` was tested. Which Potency did it give?
Answer: inconclusive: 0.316 µM [inhibitor, full curve, poor fit]

Question: How did the Potency turn out when `COc1ccc(C2c3[nH]c4ccccc4c3CCN2CCCn2cccn2)c(F)c1` (configuration not stated) was run?
Answer: inconclusive: 15.8 µM [inhibitor, single point]

Question: With `Cc1cccc(N2CCN(S(=O)(=O)c3nnc(NC(=O)c4ccc(Cl)cc4)s3)CC2)c1` as the compound, how does the Potency read?
Answer: inconclusive: 3.55 µM [inhibitor, partial curve]

Question: `CC(C)Cc1ccc(C#N)c(SCC(N)=O)n1` was tested. Which “activity, negative = inhibition” value did it give?
Answer: inactive: -4.13%

Question: How did the “activity, negative = inhibition” value turn out when `CC(=O)c1ccc2c(c1)C1C=CCC1C(C(=O)O)N2` (configuration not stated) was run?
Answer: inactive: 11.2%

Question: `Fc1ccccc1-n1ncc2c1ncn1nc(COc3ccc(Cl)cc3)nc21` was tested. Which Potency did it give?
Answer: inconclusive: 0.1 µM [inhibitor, full curve, poor fit]
